Values joined by “and” are separate entries in the source; they are usually repeats but may differ in a detail not shown here. Identical values can stand only once. About 6,400 (1.6%) of roughly 410,000 compounds were called active. Inconclusive means that the source gave no clear call. Such entries were picked first, then a sample of the others. Calls come from the whole dose curve; as a rule, active = well fitted inhibition curve with a large enough effect; inconclusive = small, poorly fitted or top-dose-only effect; inactive = no such curve, though single readings can be large or run the other way. Where the call is inconclusive, the potency comes from a doubtful curve fit.
Each molecule was assayed against Glucagon-like peptide 1 receptor (Homo sapiens) (UniProt P43220) (assay: qHTS of GLP-1 Receptor Inverse Agonists (Inhibition Mode)). Details: HEK293 GLP-1R CRE-luciferase, luminescence, 24 h, GLP-1R form is constitutively active; activity change, negative = inhibition: at 38.3 µM (top of the series) unless noted.
Summary of the method: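 Stable HEK293 clone (constitutively active GLP-1R + cAMP-response luciferase); 200 cells/uL plated, 12 h pre-culture, compound 24 hr, 37 deg C/5% CO2; detection reagent 12 min RT; luminescence.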
% is set by controls: 0 for no effect and ±100 for the full control effect; potency is the fitted concentration of half-maximal effect; tags give direction and shape of the fitted curve.
Note: nearly all actives have a fitted effect of over 55% in size.

Sequence of UniProt P43220 (P43220 whole entry, looked up): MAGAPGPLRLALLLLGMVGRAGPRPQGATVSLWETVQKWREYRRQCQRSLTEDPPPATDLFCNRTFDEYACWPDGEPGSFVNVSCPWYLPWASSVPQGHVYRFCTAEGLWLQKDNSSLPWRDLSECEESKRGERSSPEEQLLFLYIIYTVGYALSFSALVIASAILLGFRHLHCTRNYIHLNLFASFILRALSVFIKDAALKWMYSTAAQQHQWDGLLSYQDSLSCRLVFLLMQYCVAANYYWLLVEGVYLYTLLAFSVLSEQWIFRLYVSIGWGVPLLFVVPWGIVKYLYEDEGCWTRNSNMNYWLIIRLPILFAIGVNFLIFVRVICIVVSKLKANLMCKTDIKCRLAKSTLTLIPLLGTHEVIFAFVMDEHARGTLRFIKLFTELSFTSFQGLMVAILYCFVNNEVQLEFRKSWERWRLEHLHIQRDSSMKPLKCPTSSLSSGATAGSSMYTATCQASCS

Potency, active:
Cc1ccc(SCCCCN2CCNCC2)cc1 2.82 µM
C=CCN1C(=O)C(CC(=O)Nc2ccc(OCCC)cc2)N(CCCN2CCN(Cc3ccccc3)CC2)C1=S (stereo not drawn) 2.51 µM
O=S(=O)(Nc1ccccc1-c1ccccc1)c1ccccc1 6.31 µM

Potency, inconclusive:
NC(=O)CC(NC(=O)Cc1ccc(Cl)cc1)c1ccc(N2CCC(Cc3ccccc3)CC2)c([N+](=O)[O-])c1 (stereo not drawn) 28.2 µM [inhibitor, single point]
CC1=CC(=O)C=CC1=Nc1ccc(N(C)C)cc1 12.6 µM [inhibitor, single point]
Cc1ccc(-n2nc3c(=O)n(C(C)C(=O)NCc4ccc5c(c4)OCO5)nc(C)c3c2C)cc1 (stereo not drawn) 10 µM [inhibitor, partial curve, poor fit]
CCOc1ccc(-c2nc(C#N)c(N3CCCCCC3)o2)cc1 12.6 µM [inhibitor, single point]
Cc1ccc(NC(=O)C(NC2CCCc3ccccc32)c2ccccc2)cc1Cl (stereo not drawn) 10 µM [inhibitor, partial curve, poor fit]
CCN(Cc1ccc(OC)c(COC)c1)CC1CCCN(CCc2cccc(F)c2)C1 (stereo not drawn) 11.2 µM [inhibitor, partial curve, poor fit]
CCCc1sc(N)nc1-c1ccc(Cl)cc1 28.2 µM [inhibitor, single point]
COc1cc(OC)c(C(=O)N(CCc2ccccc2)Cc2ccccc2)cc1OC 12.6 µM [inhibitor, partial curve, poor fit]
CCCCCCn1ccc(=N)cc1 7.94 µM [inhibitor, partial curve, poor fit]
Cc1cccc(NS(=O)(=O)c2cc(C(=O)OC(C)C(=O)NCc3ccc4c(c3)OCO4)ccc2C)c1 (stereo not drawn) 15.8 µM [inhibitor, partial curve, poor fit]
COc1cccc(-c2nn(-c3ccc(C)cc3)cc2C(=O)N2CCc3cc(OC)c(OC)cc3C2)c1 11.2 µM [inhibitor, partial curve, poor fit]
Cc1cccc(N2CCN(C(=O)c3cc4ccc5cccnc5c4[nH]3)CC2C)c1 (stereo not drawn) 3.16 µM [inhibitor, single point]
COc1ccc(CN2CCC(c3nc4ccc(Cl)cc4[nH]3)CC2)cc1 28.2 µM [inhibitor, single point]
CCN(CC)CCN(C(=O)c1ccc2ncsc2c1)c1nc2cc3c(cc2s1)OCO3 5.01 µM [inhibitor, partial curve, poor fit]
O=C(Nc1sc2c(c1C(=O)O)CCCCC2)c1cccs1 7.08 µM [inhibitor, partial curve, poor fit]
O=C(CCC(=O)N1CCN(S(=O)(=O)c2ccc(Cl)cc2)CC1)Nc1ccc(Cl)cc1Cl 10 µM [inhibitor, partial curve]
CCOC(=O)C1=C(C)NC(C)=C(C(=O)OCC)C1c1ccc([N+](=O)[O-])s1 8.91 µM [inhibitor, partial curve, poor fit] and 10 µM [inhibitor, partial curve, poor fit]
CSc1ccc(/C=N/NC(=O)c2cccc(O)c2)cc1 8.91 µM [inhibitor, partial curve, poor fit]
COc1ccc(Nc2cc(C(=O)NCCCN3CCOCC3)c3ccccc3n2)cc1 7.94 µM [inhibitor, partial curve]
CCCCc1nc(N2CCOCC2)c(C#N)c2c1COC(C)(C)C2 12.6 µM [inhibitor, single point]
CCCCNC(=O)C1C(c2ccc(OC)cc2)=Nc2ccccc2N1C(=O)Cc1cc(OC)cc(OC)c1 (stereo not drawn) 28.2 µM [inhibitor, single point]
Cc1ccccc1NC(=O)N1CCN(C/C=C/c2ccccc2)CC1 10 µM [inhibitor, partial curve, poor fit]
CC1CCN(CCOCCOc2ccc(Cl)cc2Br)CC1 10 µM [inhibitor, partial curve, poor fit]
O=C(N/N=C\C=C\c1ccco1)C1COc2ccccc2O1 (stereo not drawn) 28.2 µM [inhibitor, single point]
CCOC(=O)C1(CCOc2ccccc2)CCN(Cc2ccc(NC(C)=O)cc2)CC1 10 µM [inhibitor, partial curve, poor fit]
COc1ccc(C(NC(=O)c2ccc(F)cc2)c2ccccc2)cc1 (stereo not drawn) 22.4 µM [inhibitor, single point]
COc1ccc(OCc2cc(C(=O)N(C)Cc3cc(C4CC4)n[nH]3)no2)c(Cl)c1 28.2 µM [inhibitor, single point]
O=C(Nc1cccc(O)c1)c1cccc(S(=O)(=O)N2CCCC2)c1 12.6 µM [inhibitor, partial curve, poor fit]
Cc1c(CN2CCC(CO)(Cc3ccccc3)CC2)c2ccccc2n1C 10 µM [inhibitor, partial curve]
O=C(NCCNC1CCC(c2ccccc2)CC1)c1ccc(F)cc1 (stereo not drawn) 11.2 µM [inhibitor, partial curve, poor fit]
Cc1cccc(S(=O)(=O)N2CN(CC3CCCO3)c3nc4ccccc4nc32)c1 (stereo not drawn) 28.2 µM [inhibitor, single point]
CN(Cc1nc(CCc2ccccc2)no1)Cc1cccs1 28.2 µM [inhibitor, single point]
CCOC(=O)C1CCN(C(=O)c2ccc3c(c2)N=C(CC)c2cc(C)ccc2S3)CC1 11.2 µM [inhibitor, single point]
Cc1ccc(NC(=O)c2ccc(-c3cc(Cl)ccc3Cl)o2)c(C)c1 12.6 µM [inhibitor, single point]
O=C(Cc1ccc(Br)c2ccccc12)N/N=C/c1ccccn1 12.6 µM [inhibitor, partial curve, poor fit]
Cc1ccc(C(=O)N[C@@H](Cc2ccccc2)C(=O)N2CCC3(CC2)NCCc2[nH]cnc23)cc1C 28.2 µM [inhibitor, single point]
Cc1ccc(-c2nnc(Nc3ccccc3)o2)cc1 8.91 µM [inhibitor, partial curve, poor fit]
Cc1nn(-c2ccc(F)cc2)c(Cl)c1C(=O)N(C)CC(=O)Nc1cccc(F)c1 11.2 µM [inhibitor, single point]
CC(Oc1ccccc1)C(=O)NNC(=O)c1ccccn1 (stereo not drawn) 22.4 µM [inhibitor, single point]
CCOC(=O)CC(=O)CSc1nc2c(C)c(C)ccc2cc1C 8.91 µM [inhibitor, partial curve, poor fit]
CCOc1ccc(CN2CCN(Cc3c(C)nn(CC)c3C)CC2CCO)cc1 (stereo not drawn) 0.501 µM [inhibitor, full curve, poor fit]

Activity change, negative = inhibition, inactive:
CC1(C)CC(NC(=O)C2CCCCC2C(=O)O)CC(C)(C)N1 (stereo not drawn) 6.81%
Cc1ccc(S(=O)(=O)NC(=S)NC2CCCCC2)cc1 5.73%
CCC(=O)Nc1sc2c(c1C(=O)Nc1ccc(Br)cc1)CCCCC2 -21.3%
O=C(COC(=O)CNS(=O)(=O)c1cccc(Br)c1)NC(=O)Nc1ccc2c(c1)OCCO2 18.7%
CCOc1ccc(-c2nc(C#N)c(N3CCN(CC)CC3)o2)cc1 -22.1%
CCOc1ccc(S(=O)(=O)NCc2ccc(OC)cc2)c2cccnc12 18.3%
O=C(c1cc2cc(F)ccc2[nH]1)N1CCN(c2cccc(Cl)c2)CC1 -6.53%
CCCCNC(=O)CN1CCN(c2ncc(NC(=O)c3ccc(Cl)cc3)cc2C(=O)O)CC1 -2.86%
O=C(O)c1ccc(N=N/C(=N\Nc2ccc(C(=O)O)cc2)c2ccccc2)cc1 26.1%
CN(C)c1ncnc2c1C(c1ccccc1)C(C)(C)O2 (stereo not drawn) 1.03%
CC(=O)Nc1ccc(-c2cc(-c3ccc(NC(C)=O)cc3)nc(-c3ccc(NC(C)=O)cc3)n2)cc1 0.706%
Cc1ccc(N=Cc2ccccc2O)cc1Cl -26.8%
COc1ccc(C(=O)/C=C/Nc2ccccn2)c(OC)c1 5.23%
O=C(Nc1ccc2c(c1)nc1n2CCN(Cc2ccccc2)C1)NC1CCCCC1 0.341%
Cc1cc(C)c(NC(=O)CSc2nc3c([nH]c4ccccc43)c(=O)n2C)c(C)c1 4.65%
O=C(COc1ccc(S(=O)(=O)N2CCOCC2)cc1)Nc1ccccc1F 35.2%
COc1ccccc1N1CCN(C(=O)c2cc3c(=O)oc4ccccc4c3s2)CC1 -14.8%
CCC(C)NCC(=O)Nc1ccc(-c2nc3cc(NC(=O)CNC(C)CC)ccc3o2)cc1 (stereo not drawn) -19%
COc1ccccc1NC(=O)C1=C(C)Nc2nc(SCc3cccc(F)c3)nn2C1c1ccc(C(=O)O)cc1 (stereo not drawn) -7.61%
CCOc1ccc(/C=C2\CCC(C3CCCC3)C2=O)cc1 (stereo not drawn) 11.5%
CCC(=O)CCC(=O)c1ccc2ccccc2c1 -11.6%
CC(C)(C)NC(=O)C(c1ccncc1)N(C(=O)Cn1nnc(-c2ccc(F)cc2)n1)c1ccc(F)cc1 (stereo not drawn) -4.48%
O=C(c1ccco1)N1CCCC(c2nc(-c3ccc(S(=O)(=O)NCc4ccccc4)cc3)no2)C1 (stereo not drawn) -18.2%
CCN(CC)c1ccc(NC(=S)NC(=O)C2CCC2)cc1 15.9%

Source: PubChem BioAssay AID624417 (National Center for Advancing Translational Sciences (NCATS), 2012)
